In all, about 310,000 compounds went through this assay and about 2,200 (0.71%) showed an effect of 50% or more. The effect is printed as a negative number. Some of the results follow.
biological target: human ether-à-go-go-related gene (hERG) potassium channel (human, UniProt Q12809); assay: primary screen, population patch clamp on CHO cells stably expressing hERG
Sequence (Q12809 whole entry, looked up): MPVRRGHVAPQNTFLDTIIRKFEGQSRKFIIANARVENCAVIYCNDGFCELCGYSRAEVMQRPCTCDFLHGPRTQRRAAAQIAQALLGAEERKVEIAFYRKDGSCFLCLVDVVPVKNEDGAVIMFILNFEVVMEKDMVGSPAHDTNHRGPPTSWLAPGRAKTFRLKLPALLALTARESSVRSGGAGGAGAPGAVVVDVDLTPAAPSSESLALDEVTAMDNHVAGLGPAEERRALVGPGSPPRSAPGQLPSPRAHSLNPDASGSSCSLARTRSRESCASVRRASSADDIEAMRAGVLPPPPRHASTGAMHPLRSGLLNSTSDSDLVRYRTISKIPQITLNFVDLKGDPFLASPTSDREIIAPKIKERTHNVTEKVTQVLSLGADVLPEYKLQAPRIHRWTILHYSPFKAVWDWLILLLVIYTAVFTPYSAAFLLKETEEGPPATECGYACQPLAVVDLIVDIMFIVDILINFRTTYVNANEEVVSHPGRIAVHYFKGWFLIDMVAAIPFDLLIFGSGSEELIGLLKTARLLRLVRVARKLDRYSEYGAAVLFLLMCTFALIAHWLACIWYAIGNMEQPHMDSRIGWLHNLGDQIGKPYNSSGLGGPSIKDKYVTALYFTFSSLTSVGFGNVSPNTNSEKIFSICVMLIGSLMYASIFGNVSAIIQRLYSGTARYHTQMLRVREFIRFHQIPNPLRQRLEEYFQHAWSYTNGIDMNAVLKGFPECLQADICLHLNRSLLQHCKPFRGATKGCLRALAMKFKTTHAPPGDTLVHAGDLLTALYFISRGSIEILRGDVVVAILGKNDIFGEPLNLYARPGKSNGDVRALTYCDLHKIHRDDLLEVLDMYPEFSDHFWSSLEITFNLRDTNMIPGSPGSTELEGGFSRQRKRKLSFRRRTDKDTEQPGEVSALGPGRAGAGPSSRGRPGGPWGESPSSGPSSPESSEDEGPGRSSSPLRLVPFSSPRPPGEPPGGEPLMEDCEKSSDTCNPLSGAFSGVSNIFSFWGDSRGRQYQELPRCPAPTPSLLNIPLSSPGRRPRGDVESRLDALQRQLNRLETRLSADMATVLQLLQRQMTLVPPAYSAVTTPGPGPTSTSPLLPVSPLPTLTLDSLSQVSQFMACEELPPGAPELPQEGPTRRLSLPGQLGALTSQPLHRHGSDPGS

SMILES	hERG current change (%, negative = inhibition) at 1uM [%]
Nc1c(Br)cc2oc(-c3ccccc3)nc2c1Br	10.8
COc1ccc(-c2cc(N)n(S(=O)(=O)c3ccc(C)cc3)n2)c(OC)c1	11.1
Cc1nnc(-n2cnc3ccccc32)c2ccccc12	4
Cc1ccccc1-c1nnc(NC(=O)c2ccc(N3C(=O)CCC3=O)cc2)s1	18.5
Cc1oc(CC(C)C)c(CN)c1C(=O)O.Cl	-3.98
CCc1ccc(N2CN(Cc3cccnc3)CNC2=S)cc1	3.68
O=C(COc1ccc2oc(-c3ccccc3)cc(=O)c2c1)Nc1ccccc1	5
O=C(CN1CCOCC1)Nc1cc(Cl)ccc1Cl	-24.5
CCOc1cc(/C=N/NC(=O)Cn2nc([N+](=O)[O-])cc2C)cc(Br)c1OCc1ccccc1F	10.7
Cc1cc(C)cc(OCCNC(=O)C2CCN(S(=O)(=O)c3ccccc3)CC2)c1	-0.855
CC1Cc2ccccc2N1C(=O)c1ccc(Br)o1 (centres unmarked)	7.47
COc1cc(CN=C(C)c2c(O)n(C3CCCCC3)c(=O)[nH]c2=O)cc(OC)c1	18.2
CCOC(=O)CCCCC(=O)c1[nH]c(=O)[nH]c1CN1CCOCC1	15.4
O=C(COC(=O)c1cccnc1Cl)NCCc1ccccc1	13.7
CC1(C)CC(=O)c2sc(N)nc2C1	1.79
CNc1nc(-c2ccccc2)cc(-c2ccccc2)n1	13.7
O=C1NN(c2cccc(Br)c2)C(=O)/C1=C/c1cccs1	9.56
O=C(O)CN1C(=O)NC2NC(=O)NC21 (centres unmarked)	11.8
COc1ccc(CCNC(=O)CCCCC(=O)NCCc2ccc(OC)c(OC)c2)cc1OC	3.97
Oc1ccc(C[C@H]2CNCCN2CCc2cccc(F)c2)cc1	7.34
CC(C)COc1ccc(-c2nnc(-c3ccncc3)o2)cc1	-5.97
Cc1cccc(N(CC(=O)N2CCOCC2)S(C)(=O)=O)c1C	-10.9
NNS(=O)(=O)c1ccc(Sc2ccccn2)c([N+](=O)[O-])c1	12.2

SMILES	hERG current change (%, negative = inhibition) at 1uM [%]
CCn1c(Cc2ccc(OC)cc2)nnc1SCC(=O)NC1CC1	16.1
Cc1nn(C)cc1C(C)NCc1c(C(=O)N2CCCCCCC2)nc2ccc(Cl)cn12 (centres unmarked)	12.3
C/C(=N\Nc1nc(N)cc(Cl)n1)c1cccc([N+](=O)[O-])c1	11.9
O=C(O)c1ccc(/C=N/N2CCN(Cc3ccccc3)CC2)cc1	2.38
CCOC(=O)c1c(-c2ccc(F)cc2)csc1NC(=O)C1CC=CCC1C(=O)O (centres unmarked)	0.606
CCOC(=O)c1c(C)[nH]c(C(=O)OC/C(O)=C(\C#N)c2nc3ccccc3[nH]2)c1C	0.203
C=CCn1c(COc2ccc(Cl)cc2)nnc1SCC(=O)NCC(=O)OCC	-0.242
CC(=O)Nc1ccc(S(=O)(=O)Oc2cccc(/C=C3\SC(N)=NC3=O)c2)cc1	5.46
CCOc1ccc(N2CC(C(=O)NCc3ccccc3)CC2=O)cc1 (centres unmarked)	9.84
CC1=CCC(C(=O)O)C(C(=O)Nc2ccc(-c3nc4ccc(C)cc4s3)cc2)C1 (centres unmarked)	9.75
CCOC(=O)CCC(=O)Nc1ccc(S(=O)(=O)N2CCC(C)CC2)cc1	9.42
CCOC(=O)CC1COCCN1C(=O)c1ccc2oc(Cc3ccccc3)nc2c1 (centres unmarked)	7.57
O=C(c1cc(NC(=O)C23CC4CC(CC(C4)C2)C3)cc(NC(=O)C23CC4CC(CC(C4)C2)C3)c1)N1CCCCC1	17
Cc1cccc(-n2c(C)cc(C(=O)NC3CCCCC3)c2C)c1	0.191
C/C(=N/NS(=O)(=O)c1ccc(F)cc1)c1ccc(NC(=O)c2ccc(C)o2)cc1	14.2
COCCNC(=O)c1ccc(C)c(S(=O)(=O)Nc2ccc(C)cc2)c1	7.48
O=C(CN(C(=O)CCC(=O)Nc1nccs1)c1ccc(F)cc1)NCCc1ccccc1	16.3
CCCN1C(=O)/C(=C2\SC(=S)N(c3c(C)n(C)n(-c4ccccc4)c3=O)C2=O)c2ccccc21	11.9
CCCCNC(=O)CCNC(=O)c1ccc(C(C)(C)C)cc1	-0.769
Cc1ccc(NC(=O)CSCC(=O)NNC(=O)c2ccoc2C)cc1	0.47
S=C(N/N=C/c1ccco1)NC1CC2CCC1C2 (centres unmarked)	8.84
O=C(NCc1cccnc1)c1cccc(S(=O)(=O)NCc2ccccc2)c1	-5.2
O=C(CN1CCN(Cc2ccccc2)CC1)Nc1cccc(C(F)(F)F)c1	-27.8

SMILES	hERG current change (%, negative = inhibition) at 1uM [%]
O=C(Cc1ccccc1)NNC(=O)c1ccccc1C(=O)O	0.653
CCNc1nc(SC(C)C(=O)OC)nc(N(C)C)n1 (centres unmarked)	18.2
BrCCOCCOc1ccc2ccccc2c1	9.69
O=C(O)Cc1n[nH]c(=O)c2ccccc12	12.3
CCOC(=O)Cn1nc(C)c(NC(=O)COc2ccc([N+](=O)[O-])cc2)c1C	-14.4
COc1ccc2cc(C(=O)C3CCCN(C(=O)CSc4nnc(C)o4)C3)ccc2c1 (centres unmarked)	-20.7
CCOC(=O)c1sc(NC(=O)CSc2nnnn2-c2ccccc2)nc1C	11.2
COc1cccc2c(=O)n(CC(=O)Nc3ccc(F)cc3)ccc12	12.9
S=c1nc(-c2ccccc2)[nH]c2ccc(Br)cc12	11.9
Cn1cccc1/C=N/NC(=O)c1cc2ccccc2cc1O	8.23
CCOc1ccc(-n2c(C)cc(/C=C3/C(=N)N4C(=NC3=O)SN=C4S(C)(=O)=O)c2C)cc1	3.42
CN1CCN(CC#CCC(O)(c2ccccc2)C2CCCC2)CC1.Cl (centres unmarked)	10.1
COc1ccc(CN2CC(C(=O)NC3CCCCC3)CC2=O)cc1 (centres unmarked)	6.79
CC1CN(C(=O)COC(=O)c2ccc(NC(=O)CC#N)cc2)CC(C)O1 (centres unmarked)	8.63
OCC(CO)(CO)N=Cc1cc(Br)ccc1O	12.4
CCOc1ccc(S(=O)(=O)NCCC(=O)NCc2ccc(OC)c(OC)c2)cc1	0.905
CSc1ccc(CNC(=O)CCn2ccc3cc(S(=O)(=O)N4CCCC4)ccc32)cc1	7.87
Cc1c(C(=O)c2ccccc2)c2ccccn2c1CCC#N	-3.18
O=C1c2ccccc2C(=O)N1CCCP(=O)(O)CCc1ccccc1	18.8
Cc1cc(C)cc(N2C(=O)C3C4C=CC(C4)C3C2=O)c1 (centres unmarked)	-1.64
COc1ccccc1C(=O)N1C(CC(=O)Nc2cc(Cl)ccc2C)C(=O)NC2CCCCC21 (centres unmarked)	22.8
COc1cc(C)cc2oc(=O)c(CC(=O)N3CCN(C(=O)C4COc5ccccc5O4)CC3)c(C)c12 (centres unmarked)	-0.752
C/C=C/C(=O)OCC(=O)Nc1cccc(S(=O)(=O)NC2=NCCCCC2)c1	-0.783

SMILES	hERG current change (%, negative = inhibition) at 1uM [%]
COC(=O)CCc1c(C)c(C(=O)c2ccco2)c2ccccn12	10.7
CCOC(=O)c1c(C)[nH]c(C)c1C(=O)CSc1nnc(-c2cc(OC)c(OC)c(OC)c2)o1	12.5
Cc1ccc(S(=O)(=O)NN2C(=O)c3ccccc3NC2c2cccc(O)c2)cc1 (centres unmarked)	6.19
[N-]=[N+]=NC[C@H](c1ccccc1)N1CCN(Cc2ccccc2)CCC1=O	8.04
O=C(C1CCOCC1)N1CCCC(N2CCN(c3ccc(F)cc3)CC2)C1 (centres unmarked)	5.9
COc1ccc2[nH]c(=O)c(CN(CCO)C(=O)NCc3ccccc3)cc2c1	0.186
COc1cc(C(=O)NCCNc2nc3ccc(C)cc3cc2C#N)cc(OC)c1OC	9.87
CCCn1nnnc1NCc1ccccc1OCc1cccs1	9.23
COc1ccc(C(=O)N/C(=C\c2cn(C)c3ccccc23)C(=O)NCCCn2ccnc2)cc1OC	17.3
CCOc1ccc(Oc2nc(NCC(C)C)nc(OC)n2)nn1	7.02
CCOC(=O)NC(=O)c1cn(C(CC)CO)c(=O)[nH]c1=O (centres unmarked)	11.5
CCCCNC(=O)NNC(=O)c1ccco1	3.04
Cc1cccc(C(=O)Nc2ccc(C(=O)Nc3ccc(O)cc3)cc2)c1	7.7
CC(C)CCn1c(N2CCN(c3cccc(Cl)c3)CC2)nc2c1c(=O)[nH]c(=O)n2C	-4.54
CCOC(=O)c1cc(C(=O)NC(C)c2ccccc2)c(=O)[nH]c1C (centres unmarked)	15.2
CCN(CC)N=Nc1[nH]nc2nc(C)cc(C)c12	14.5
CCOc1ccc(C2=CSC3=NCCN23)cc1	13.4
CCCn1c(N)c(C(=O)CSc2nc(C)cs2)c(=O)n(C)c1=O	4.46
Cc1cc2nc(C3CCN(C(=S)NCC(C)C)CC3)[nH]c2cc1C.O=C(O)C(=O)O	-12.2
CCOC(=O)Cn1ncc(-c2ccccc2)c1N	-3.65

— paper PMC4336329 (PLoS ONE, 2015)
